Experimental data taken from US11109592B2, “Selective weed control methods” (Corteva Agriscience LLC, priority 2013, dated 2021).

Tested on: yellow mustard (Sinapis alba)
Conditions: in vivo

COc1c(Cl)ccc(-c2cc(N)c(Cl)c(C(=O)O)n2)c1F [Compound I, 4-amino-3-chloro-6-(4-chloro-2-fluoro-3-methoxyphenyl)pyridine-2-carboxylic acid]
Yield of yellow mustard, relative to untreated check treatment: not impacted
